According to PubChem BioAssay AID1347165 (National Center for Advancing Translational Sciences (NCATS), 2019):
Out of some 220,000 compounds screened, about 5,700 (2.6%) were called active. The shares of active, inactive and inconclusive entries below differ from those in the screen. Calls follow the shape of the dose curve; as a rule, active = well fitted inhibition curve with a large enough effect; inconclusive = small, poorly fitted or top-dose-only effect; inactive = no such curve, though single readings can be large or run the other way. Where the call is inconclusive, the potency comes from a doubtful curve fit.

What follows are molecules tested against Lysine-specific demethylase 5B (Homo sapiens) (UniProt Q9UGL1) (assay: Primary screen for KDM5B Histone Demethylases FDH-coupled qHTS). Details: FDH-coupled NADH fluorescence (FDH is formaldehyde dehydrogenase); activity change, negative = inhibition: at 57.7 µM (top of the series) unless noted.
Sequence of UniProt Q9UGL1 (Q9UGL1 whole entry, looked up): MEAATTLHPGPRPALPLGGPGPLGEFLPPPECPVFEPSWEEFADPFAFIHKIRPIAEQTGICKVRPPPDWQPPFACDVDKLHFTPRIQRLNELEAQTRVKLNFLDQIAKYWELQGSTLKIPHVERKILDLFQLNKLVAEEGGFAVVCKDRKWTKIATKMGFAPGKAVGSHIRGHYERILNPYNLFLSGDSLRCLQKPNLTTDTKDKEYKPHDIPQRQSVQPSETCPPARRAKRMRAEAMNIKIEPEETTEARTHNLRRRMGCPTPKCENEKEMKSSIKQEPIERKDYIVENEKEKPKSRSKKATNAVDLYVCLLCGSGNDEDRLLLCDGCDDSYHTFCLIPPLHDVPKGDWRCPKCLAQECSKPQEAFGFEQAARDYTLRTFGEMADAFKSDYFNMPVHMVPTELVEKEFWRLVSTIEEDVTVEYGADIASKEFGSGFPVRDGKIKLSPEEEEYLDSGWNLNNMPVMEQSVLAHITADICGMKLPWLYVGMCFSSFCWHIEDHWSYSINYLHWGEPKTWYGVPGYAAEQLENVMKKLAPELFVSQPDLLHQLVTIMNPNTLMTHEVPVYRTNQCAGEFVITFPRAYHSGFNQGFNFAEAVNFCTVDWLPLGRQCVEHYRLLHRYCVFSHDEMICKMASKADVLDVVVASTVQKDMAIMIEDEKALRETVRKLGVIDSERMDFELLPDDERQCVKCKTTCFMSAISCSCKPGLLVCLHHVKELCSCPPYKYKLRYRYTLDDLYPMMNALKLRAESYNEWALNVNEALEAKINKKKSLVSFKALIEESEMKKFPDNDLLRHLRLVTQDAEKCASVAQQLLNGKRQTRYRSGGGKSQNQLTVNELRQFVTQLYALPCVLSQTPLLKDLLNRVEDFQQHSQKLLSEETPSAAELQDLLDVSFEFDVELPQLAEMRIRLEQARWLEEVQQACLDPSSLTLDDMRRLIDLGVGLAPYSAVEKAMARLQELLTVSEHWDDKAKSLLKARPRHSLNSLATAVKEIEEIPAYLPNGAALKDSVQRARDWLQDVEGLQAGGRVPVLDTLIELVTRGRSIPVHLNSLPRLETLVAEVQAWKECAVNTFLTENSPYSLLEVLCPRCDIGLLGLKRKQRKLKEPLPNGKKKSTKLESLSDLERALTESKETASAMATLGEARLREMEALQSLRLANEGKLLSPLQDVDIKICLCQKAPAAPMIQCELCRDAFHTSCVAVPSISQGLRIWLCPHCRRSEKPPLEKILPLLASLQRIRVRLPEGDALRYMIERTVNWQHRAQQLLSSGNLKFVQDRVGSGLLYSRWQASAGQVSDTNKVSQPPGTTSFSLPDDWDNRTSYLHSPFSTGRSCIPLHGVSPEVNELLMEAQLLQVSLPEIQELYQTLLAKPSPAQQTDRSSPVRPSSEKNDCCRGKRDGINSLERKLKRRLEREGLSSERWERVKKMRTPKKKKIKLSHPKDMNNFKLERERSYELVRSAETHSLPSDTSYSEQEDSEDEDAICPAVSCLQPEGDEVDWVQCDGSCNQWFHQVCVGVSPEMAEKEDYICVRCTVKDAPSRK
How it was run: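 Measured: NADH fluorescence change, 30 min, RT. System: KDM5BΔAP 200 nM final, H3K4me3 peptide, α-KG, Fe(II), ascorbate, NAD⁺ plus FDH, pH 7.5 HEPES. Compounds: titrated, 10 min pre-incubation with enzyme.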
Also: nearly all actives have a fitted effect of over 70% in size.
For activity change, negative = inhibition in this document: 0% is about no effect.
Potency is read from the fitted curve at half-maximal effect; tags tell the direction and shape of the fitted curve.

Compound | activity change, negative = inhibition | Potency
O=S(=O)(c1ccc(F)cc1)N(Cc1nc(-c2ccccc2)no1)C1CCCCC1 | inconclusive: -30.2% [inhibitor] | 
O=C(Nc1nc2nccc(-c3ccccc3)n2n1)c1ccccc1 |  | inconclusive: 17.8 µM [inhibitor, partial curve, poor fit]
Cc1cc(C(=O)N2CCCC(c3[nH]ccc3C(N)=O)C2)c(C)n1Cc1ccco1 (stereo not drawn) |  | inconclusive: 25.1 µM [inhibitor, single point]
Cc1ccc2oc(C(=O)Nc3cccnc3)cc(=O)c2c1 | inactive: -9.12% | 
CC(=O)N1c2c(cc(Br)cc2S(=O)(=O)N2CCN(c3ccccc3)CC2)CC1C (stereo not drawn) |  | inconclusive: 1.12 µM [inhibitor, full curve, poor fit]
CCOc1cc(C#N)c(NC(=O)c2ccc3c(c2)OCO3)cc1OCC | inactive: 11.2% | 
Cc1ccc(-c2cc3c(N4CCN(c5cc(C)ccc5C)CC4)nccn3n2)cc1 |  | inconclusive: 7.08 µM [inhibitor, partial curve, poor fit]
CC(=O)N[C@@H]1C[C@H](Cn2cc(CN3CCS(=O)(=O)CC3)nn2)[C@@H](O)[C@H]1O | inactive: 15.7% | 
CCCCN(C)Cc1ccc(OCc2ccccc2)cc1 |  | inconclusive: 31.6 µM [inhibitor, single point]
CCOc1ccccc1CNC(=O)CCn1ccc2cc(S(=O)(=O)N3CCCCC3)ccc21 |  | inconclusive: 35.5 µM [inhibitor, single point]
CCc1noc(-c2cn(C3CCN(C(=O)c4ccccc4)CC3)nn2)n1 | inactive: 0.348% | 
NC(=O)c1ccc(NC(=O)CCc2ncc(-c3ccc(F)cc3)o2)cc1 | inactive: -4.37% | 
Cc1ccccc1NS(=O)(=O)c1ccc2[nH]c3c(c2c1)CCCCC3 |  | inconclusive: 2.82 µM [inhibitor, full curve, poor fit]
CCOC(=O)c1cc(-c2ccccc2)n(CCC(=O)Nc2nc3c(C)cccc3s2)c1C |  | inconclusive: 22.4 µM [inhibitor, single point]
COc1cc(F)ccc1-c1cnc2n[nH]c(-c3ccccc3)c2n1 |  | inconclusive: 56.2 µM [inhibitor, single point]
CC(C)c1nc(N2CCCC2)ncc1C(=O)O |  | inconclusive: 28.2 µM [inhibitor, single point]
Cc1ccc(-c2nnc(SCC(=O)NCc3ccccc3)nc2-c2ccc(C)cc2)cc1 | inconclusive: -32.8% [inhibitor] | 
COc1ccc(CNC2(Cc3cc(-c4ccc(OC)cc4)on3)COC2)cc1 | inactive: -1.36% [at 86.2 µM] | 
COc1ccccc1N1CCN(C(=O)c2cnc(N3CCCCC3)c3ccccc23)CC1 |  | inconclusive: 35.5 µM [inhibitor, single point]
CNS(=O)(=O)c1cc(-c2nnc(Nc3cc(C)ccc3C)c3ccccc23)ccc1C |  | inconclusive: 20 µM [inhibitor, partial curve, poor fit]
CCc1ccc(C(=O)NC(Cc2c[nH]c3ccccc23)C(=O)OCC(=O)c2ccc(Br)cc2)cc1 (stereo not drawn) |  | inconclusive: 1.26 µM [inhibitor, full curve, poor fit]
O=c1c2sccc2n(Cc2cc(=O)n3ccccc3n2)c(=O)n1-c1cccc(C(F)(F)F)c1 |  | inconclusive: 25.1 µM [inhibitor, partial curve, poor fit]
Cc1ccc(C2CCCN2Cc2nc(-c3cccs3)no2)cc1 (stereo not drawn) | inactive: 7.73% | 

Compound | activity change, negative = inhibition | Potency
COc1ccc2c(c1)cc(C(=O)N[C@@H](Cc1ccccc1)C(=O)O)n2C |  | inconclusive: 25.1 µM [inhibitor, partial curve, poor fit]
Cc1ccc(CS(=O)(=O)NC2CCc3n[nH]c(=O)n3CC2)cc1C (stereo not drawn) |  | inconclusive: 7.08 µM [inhibitor, single point]
O=C1Nc2cnccc2C2(CCN(C(=O)c3ccccc3F)C2)O1 (stereo not drawn) |  | active: 31.6 µM
O=S(=O)(/N=C(/NC(=S)Nc1ccccc1)c1ccccc1)c1ccc(Cl)cc1 |  | inconclusive: 25.1 µM [inhibitor, partial curve, poor fit]
CC(OC(=O)c1nn(-c2ccccc2)c(=O)c2ccccc12)C(=O)Nc1ccc(N2CCOCC2)cc1 (stereo not drawn) | inactive: 8.11% | 
COc1ccc(C(=O)N2CCN(c3cc(-c4ccc(Cl)cc4)[nH]n3)CC2)cc1F | inactive: -4.26% | 
CC(NC(=O)CSc1nnc(N2CCOCC2)n1-c1ccccc1)c1cc2ccccc2o1 (stereo not drawn) | inactive: 10.6% | 
CCN(Cc1nc(-c2ccc(Cl)cc2)no1)C(=O)Nc1cccc2ccccc12 |  | inconclusive: 28.2 µM [inhibitor, single point]
Cn1ccnc1C(=O)c1cccc(NC(=O)C(=O)N[C@H](CO)Cc2ccccc2)c1 | inactive: 8.63% | 
Cc1sc(NC(=O)/C=C/c2cccs2)c(C#N)c1C |  | inconclusive: 39.8 µM [inhibitor, single point]
CCCSc1ccc(C(=O)CCN(C)C)cc1 |  | inconclusive: 39.8 µM [inhibitor, partial curve, poor fit]
CCn1nc(C(=O)Nc2ccc(OCC(C)C)c(Cl)c2)c2ccccc2c1=O | inactive: 13.7% | 
O=C(Cn1ccc2cc(S(=O)(=O)N3CCCCCC3)ccc21)NCCc1ccc(Cl)cc1 |  | inconclusive: 35.5 µM [inhibitor, partial curve, poor fit]
O=C(NC1CCCCCC1)C1c2ccccc2C(=O)N1Cc1ccccc1Cl (stereo not drawn) |  | inconclusive: 28.2 µM [inhibitor, single point]
O=C(CC1SC(=O)N(c2ccccc2)C1=O)Nc1cccc2ccccc12 (stereo not drawn) |  | inconclusive: 15.8 µM [inhibitor, single point]
Cc1cc(C(=O)C(=O)Nc2nnc(C(C)C)s2)c(C)n1-c1ccccc1 |  | inconclusive: 12.6 µM [inhibitor, partial curve, poor fit]
COC(=O)C1=C(N)OC2=C(C(=O)CC(C)(C)C2)C1c1ccc(Cl)cc1 (stereo not drawn) | inactive: 21% | 
CN(C(=O)c1cn(C)c2ccccc12)C1CCS(=O)(=O)C1 (stereo not drawn) | inactive: 22.2% | 
CCCn1nnc(NC(=O)c2cc3ccccc3cc2OC)n1 |  | inconclusive: 2.51 µM [inhibitor, full curve, poor fit]
COC(=O)CSc1ncc2c(n1)-c1ccccc1N(Cc1cccc(F)c1)S2(=O)=O | inactive: -21.9% | 
Cn1c(=O)c2[nH]c(CN3CCc4ccccc4C3)nc2n(C)c1=O |  | inconclusive: 14.1 µM [inhibitor, partial curve, poor fit]
COc1ccc([C@@H]2[C@@H](C(N)=O)C2(C#N)C#N)cc1 |  | inconclusive: 14.1 µM [inhibitor, partial curve, poor fit]
O=C(c1ccncc1)N1CC2CCC(C1)N2Cc1ccc(-c2cccs2)cc1 |  | active: 79.4 µM

Compound | activity change, negative = inhibition | Potency
COCCN1C(=O)c2cccn2CC1CNS(=O)(=O)c1ccc(F)cc1 (stereo not drawn) | inactive: -18.9% | 
Cc1ccc(S(=O)(=O)N2CCN(CCS(=O)(=O)CCC(N)=O)CC2)cc1 | inactive: 22.6% | 
CNS(=O)(=O)Cc1ccccc1CNC(=O)c1cccc(F)c1 | inactive: -0.298% | 
CC1(COCC2CC2)COc2ccc(C(=O)Nc3ccc4[nH]ccc4c3)cc2N1 (stereo not drawn) | inactive: -28.9% [at 86.2 µM] | 
COc1ccccc1Nc1ncc2c(n1)CN(C(=O)Cc1cccc(F)c1)CCN2 |  | inconclusive: 28.2 µM [inhibitor, partial curve, poor fit]
CC(C)NC(=O)N[C@H]1C[C@@H](C(=O)N[C@H](Cc2c[nH]c3ccccc23)C(N)=O)N(C(=O)c2cccn2C)C1 |  | inconclusive: 20 µM [inhibitor, single point]
C=CCNC(=O)c1cc(-c2cccc(C)c2)nc2ccccc12 |  | inconclusive: 17.8 µM [inhibitor, single point]
CC(=O)c1cccc(NC(=O)C(C)n2c(=O)cc(-c3ccccc3)c3c(C)nn(C)c32)c1 (stereo not drawn) |  | inconclusive: 1.41 µM [inhibitor, partial curve, poor fit]
CCCN1CCCN(c2ccccc2C#N)CC1 |  | inconclusive: 25.1 µM [inhibitor, partial curve, poor fit]
Cc1oc(-c2ccccc2)nc1C(=O)NCc1ccccc1 | inactive: 3.7% | 
COc1ccc(CNc2cc3c(cn2)CN(Cc2ccccc2)CCN3)cc1OC | inactive: -29.9% [at 86.2 µM] | 
CN(CC1CCCO1)c1ccc(C(=O)N2CCC(CCn3cccn3)CC2)cn1 (stereo not drawn) |  | inconclusive: 14.1 µM [inhibitor, partial curve, poor fit]
Cc1cccc(Cc2c(C)nc3nc(SCC(=O)NCc4ccc(F)cc4)nn3c2C)c1 |  | inconclusive: 31.6 µM [inhibitor, single point]
COc1ccc(OC)c(-c2nc3c(c(=O)[nH]2)Cc2ccccc2O3)c1 |  | inconclusive: 31.6 µM [inhibitor, single point]
COc1ccc(CN(C)C(=O)C2CNCCO2)c2cccnc12 (stereo not drawn) |  | inconclusive: 14.1 µM [inhibitor, partial curve, poor fit]
CCc1cccc(C)c1NC(=O)Cn1c(=O)n(-c2cccc(C)c2)c(=O)c2c1c1cc(C)ccc1n2C |  | inconclusive: 31.6 µM [inhibitor, single point]
CC(=O)N1C[C@@H](C(=O)NCCc2ccc(Cl)cc2)[C@H](c2nc(C)no2)C1 | inactive: -0.265% | 
Cc1ccc(C(=O)Nc2ccc3nc(SCC(=O)N4CCC(C)CC4)sc3c2)cc1 | inactive: 54.6% | 
CC(C)c1nc2cc(NC(=O)NCc3ccccc3)ccc2o1 | inactive: 0.338% | 
CCC(C)CNc1ncnc2c1CN(C1CCCNCC1)C(=O)CN2C (stereo not drawn) |  | inconclusive: 56.2 µM [inhibitor, partial curve, poor fit]
COC(=O)C1=CN(C)C=C(C(=O)OC)C1c1cccs1 |  | inconclusive: 22.4 µM [inhibitor, partial curve, poor fit]
Cc1ccc2nc(-c3cccnc3)cc(C(=O)NCCc3ccccc3)c2c1 |  | inconclusive: 3.55 µM [inhibitor, full curve, poor fit]
